# Data taken from PubChem BioAssay AID1240 (Sanford-Burnham Center for Chemical Genomics, 2008).
# About 800 (1.6%) of roughly 50,000 compounds showed an effect of 50% or more. The list shows a part of the results.
# Biological target: Bcl-2-like protein 10 (Homo sapiens) (UniProt Q9HD36)
# Test: Phenotype converters, Bcl-B/TR3 peptide binding displacement, primary biochemical FP (AID 1240);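 further: 0% = Bcl-B with tracer peptide and DMSO and 100% = tracer peptide lacking Bcl-B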
# Details: GST-Bcl-B / FITC-TR3 peptide fluorescence polarization; stronger effect = higher value; compound at 3.75 mg/L
# Sequence of UniProt Q9HD36 (Q9HD36 whole entry, looked up): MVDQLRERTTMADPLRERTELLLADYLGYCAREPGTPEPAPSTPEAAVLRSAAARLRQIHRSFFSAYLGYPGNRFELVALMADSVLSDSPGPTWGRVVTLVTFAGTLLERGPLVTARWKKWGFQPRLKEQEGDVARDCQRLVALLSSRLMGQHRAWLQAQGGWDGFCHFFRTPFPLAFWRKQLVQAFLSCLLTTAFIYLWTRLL
row,Compound,displacement
1,O=C(O)CC(Cc1ccccc1)C(=O)O (stereo unspecified),-1.9%
2,COc1cc(C(=O)N/N=C/c2ccc(C)o2)cc(OC)c1OC,-9.2%
3,CCc1nc(NC(=O)NS(=O)(=O)c2ccccc2C(=O)OC)nc(OC)n1,2.3%
4,COc1ccccc1CC(=O)Nc1cc(Cl)ccc1OC,11.3%
5,C=CCC(CC=C)(NC(=O)/C=C/c1ccccc1)c1ccccc1,-12.8%
6,O=C1C(Cc2ccc(O)cc2)NC(=S)N1c1ccccc1 (stereo unspecified),3.9%
7,Cc1ccc(S(=O)(=O)NC(=O)N2CCN(c3ccc(F)cc3)CC2)cc1,-1.3%
8,O=C(/C=C/c1ccccc1)NC(=S)Nc1ccc(NC(=O)c2ccccc2)cc1,4.6%
9,O=C(Nc1ccc(S(=O)(=O)Nc2nccs2)cc1)c1ccc(Cl)cc1,4.5%
10,CC1=C(C(N)=O)C(c2ccc(C)cc2)N=C(SCc2ccc(F)cc2)N1 (stereo unspecified),-7.8%
11,COc1ccccc1-c1c(C(F)(F)F)oc2c(CN3CCC(C)CC3)c(O)ccc2c1=O,-3.9%
12,C/C(=N\NC(=O)c1cc(C)[nH]n1)c1ccc2ccccc2c1,-8%
13,COc1ccc(Cl)cc1C(=O)Nc1ccc(OC(F)(F)F)cc1,0.4%
14,CC(=O)Nc1ccc(C(=O)Nc2ccccc2C(=O)O)cc1,2.6%
15,CC(C)=C1C2CCC1C(C(=O)NCCC(c1ccccc1)c1ccccc1)C2C(=O)O (stereo unspecified),-1.7%
16,Cc1ccc(C(=O)N/C(=C/c2cccnc2)c2nc3ccccc3[nH]2)cc1,6.5%
17,Cc1ccccc1OCC(=O)O/N=C(\N)c1ccc(Br)cc1,8%
18,CCN(CC)C(=O)C1=CC2([N+](=O)[O-])CN(CC(=O)O)CC([N+](=O)[O-])(C1)C2 (stereo unspecified),-11.2%
19,O=C(O)Cn1c(O)c(/C=C2\C=Nc3ccccc32)sc1=S,-106%

row,Compound,displacement
1,CC(=O)Nc1ccc(S(=O)(=O)Nc2ccc(Cl)c(Cl)c2)cc1,-1.1%
2,CC1=NN(c2cccc(C(=O)O)c2)C(=O)/C1=C\c1ccc(-c2ccc(C)cc2[N+](=O)[O-])o1,7.5%
3,CCCC(=O)Nc1ccc(NC(=O)COc2ccc(Cl)cc2Cl)cc1,1.6%
4,CC(C)(C)c1ccc(-c2n[nH]c(=S)o2)cc1,4.6%
5,COc1ccccc1/C=C1\SC(N2CCOCC2)=NC1=O,14%
6,CC(C)CC(=O)N1CCN(Cc2cccc(F)c2)CC1,-8.9%
7,Cc1cccc(CC2SC(=Nc3ccc(Cl)cc3)NC2=O)c1 (stereo unspecified),1.9%
8,COc1ccc(-n2c(-c3cccc(C)c3[N+](=O)[O-])n[nH]c2=S)cc1,11.3%
9,COc1ccccc1-c1c(C(F)(F)F)oc2cc(OC(=O)c3ccco3)ccc2c1=O,14.5%
10,CCOC(=O)c1c(C)oc2cc(Cl)c(OC)c(OC)c12,27.3%
11,CCOc1ccccc1NC(=O)c1c(NC(=O)CCC(=O)O)sc2c1CCCCC2,-5.8%
12,O=C1NC(=O)/C(=C\c2ccc(-c3cccc([N+](=O)[O-])c3)o2)S1,15%
13,Nc1nc(-c2ccc(F)cc2F)cs1,-9.5%
14,CCOc1cc(/C=N/NC(=O)c2ccccn2)cc([N+](=O)[O-])c1O,5.7%
15,CC(C)COc1ccc(C(=O)N2CCCCCC2)cc1,-2.5%
16,O=C(Nc1nnc(CCOCCc2nnc(NC(=O)c3cccs3)s2)s1)c1cccs1,-1.6%
17,Cc1cc(NC(=O)/C=C/c2ccccc2Cl)ccc1Br,5.1%
18,O=C(NC(=S)NCc1ccccc1)c1cccc(Cl)c1,14.4%
19,CCCCSCC(O)COC(C)C (stereo unspecified),-10%

row,Compound,displacement
1,CCOc1cccc(C(=O)NCc2ccncc2)c1,-8.9%
2,O=c1c2c3n(c4cc(Cl)c([N+](=O)[O-])cc4c-2nn1-c1ccccc1)CCC3,2.6%
3,Cc1ccc(N2NC(=O)/C(=C/c3ccc(-c4ccc5c(c4)COC5=O)o3)C2=O)cc1C,5.6%
4,CCc1noc(-c2[nH]c3ccccc3c2C(=O)C(=O)N(C)C)c1C,-3.9%
5,CCCOc1ccc(/C=C2\SC(=O)N(Cc3ccccc3)C2=O)cc1OC,21.9%
6,O=C1c2ccc([N+](=O)[O-])cc2C(=O)N1Cc1ccc(Cl)cc1Cl,13.1%
7,Cc1ccc(C(=O)N/C(=C/c2cccs2)c2nc3ccccc3[nH]2)cc1,47.2%
8,O=C1CC(Sc2nc3ccccc3s2)C(=O)N1c1cc(Cl)ccc1Cl (stereo unspecified),9%
9,O=C(Nc1ccc(F)cc1)Nc1ccc(OC(F)(F)F)cc1,-8.5%
10,CNC(=O)/C=C/c1ccc2c(c1)OCO2,6.9%
11,CC1(c2ccccc2)CC(C)(C)N(C(=O)CN2CCCCC2)c2ccccc21 (stereo unspecified),-13.2%
12,CCc1ccc2oc(-c3ccc(C)c(NC(=O)c4cc(OC)cc(OC)c4)c3)nc2c1,13.4%
13,COc1ccc(OC)c(/C=C/C(=O)c2ccc(Cl)cc2)c1,-5.2%
14,CCC1=NN2C(=N)/C(=C/c3ccc(-c4cccc(C(=O)O)c4)o3)C(=O)N=C2S1,1.4%
15,Cc1ccccc1N/C=C\C(=O)c1ccc([N+](=O)[O-])cc1,-5.5%
16,Cc1cc(C)c(NS(=O)(=O)c2ccc3ccccc3c2)c(C)c1,2.5%
17,O=C(COc1ccccc1)Nc1ccc(Br)c(Cl)c1,2.3%
18,CCOC(=O)c1cc(=O)oc2c(C(=O)OCC)c(C)[nH]c12,-8.7%
